According to publication PMC6919601, “Identification of Plasmodium dipeptidyl aminopeptidase allosteric inhibitors by high throughput screening” (PLoS ONE, 2019):
Where “and” joins values, the source holds several entries; their conditions need not be identical. Equal entries are not always repeated. The campaign covered roughly 110,000 compounds. About 230 (0.21%) showed an effect of 50% or more. This is one part of the list.

target: DPAP1 (Plasmodium falciparum, UniProt Q8IIJ9); assay: primary screen, percent inhibition; read by cleavage of a fluorogenic dipeptide substrate; higher = more effect of the substance; set-up: species or system P. falciparum D10 trophozoite lysates; single well
Sequence (Q8IIJ9 whole entry, looked up): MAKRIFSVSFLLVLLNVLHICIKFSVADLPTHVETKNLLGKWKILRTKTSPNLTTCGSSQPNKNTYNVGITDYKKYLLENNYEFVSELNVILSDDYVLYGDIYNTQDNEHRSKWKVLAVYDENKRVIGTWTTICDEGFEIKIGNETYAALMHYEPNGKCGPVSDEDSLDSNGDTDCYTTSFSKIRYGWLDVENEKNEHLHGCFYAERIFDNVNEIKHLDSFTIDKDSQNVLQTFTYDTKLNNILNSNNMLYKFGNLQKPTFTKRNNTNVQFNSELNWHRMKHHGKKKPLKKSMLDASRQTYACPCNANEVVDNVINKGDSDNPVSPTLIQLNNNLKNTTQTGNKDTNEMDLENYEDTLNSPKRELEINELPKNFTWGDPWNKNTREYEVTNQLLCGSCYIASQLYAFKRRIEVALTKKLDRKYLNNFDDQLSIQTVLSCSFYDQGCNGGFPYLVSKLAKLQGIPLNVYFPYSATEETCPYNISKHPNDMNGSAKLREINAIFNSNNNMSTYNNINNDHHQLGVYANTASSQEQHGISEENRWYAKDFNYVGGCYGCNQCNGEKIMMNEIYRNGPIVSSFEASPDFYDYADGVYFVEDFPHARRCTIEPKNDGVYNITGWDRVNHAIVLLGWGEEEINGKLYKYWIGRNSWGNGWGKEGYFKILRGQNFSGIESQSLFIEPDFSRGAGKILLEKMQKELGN
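Further: 30 min substrate incubation versus DMSO and 10 µM JCP410 controls.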

Going from `COc1ccc(NC(=O)N2CCN(C)CC2)cc1` to `CSc1ccc(/C=C(/NC(=O)c2ccccc2)C(=O)N2CCN(C)CC2)cc1`, the “% Inhibition @ 10 uM” value falls from 3% to -1.37%.

Compared with `COc1cccc(N2CCN(Cc3nc(N)nc(Nc4ccc(C)c(C)c4)n3)CC2)c1`, `CCOC(=O)N1CCN(c2c(NCCc3ccc(Cl)cc3)c(=O)c2=O)CC1` is lower in “% Inhibition @ 10 uM” value: 6.98% for the first, -3.21% for the second.

Compared with `C/N=C1\S/C(=C\c2ccc(OCc3cccc(C(=O)O)c3)c(Br)c2)C(=O)N1C`, `COc1cc(/C=C2\NC(=O)N(Cc3ccccc3F)C2=O)ccc1OC(C)C(=O)O` (stereo not drawn) is lower in “% Inhibition @ 10 uM” value: 3.27% for the first, -2.19% for the second.

First: Cc1ccc(OCCSc2nc(-c3ccco3)nc3cc(=O)[nH]n23)cc1Cl
Second: COc1ccccc1OCCSc1nc(-c2ccccc2)nc2cc(=O)[nH]n12
The “% Inhibition @ 10 uM” value of the first is higher: 1.11% for the first, -3.04% for the second.

Compared with `O=C(CSCc1ccc(F)cc1)NC1CCCCCC1`, `Cc1ccccc1CSCC(=O)NC1CCCC1` is higher in “% Inhibition @ 10 uM” value: 1.97% for the first, 2.15% for the second.

Going from `O=C(CSc1nc2ccsc2c(=O)n1CC1CCC(C(=O)O)CC1)Nc1nccs1` (stereo not drawn) to `CCOc1cccc2cc(-c3csc(NC(=O)CCC(=O)NC4CCC(C)CC4)n3)c(=O)oc12` (stereo not drawn), the “% Inhibition @ 10 uM” value rises from -1.15% to 3.21%.

Compared with `Cc1cccn2c(=O)c3cc(C(=O)NC4CCCCC4)c(=N)n(CCOCCO)c3nc12`, `O=C(CCn1c(=O)c2cccn2c2cccnc21)NCCCN1CCC(N2CCCCC2)CC1` is higher in “% Inhibition @ 10 uM” value: -3.5% for the first, 2.3% for the second.

First: CCSc1ncc(Cl)c(C(=O)Nc2nnc(CC(C)C)s2)n1
Second: Cc1nnc(SCC(=O)NC2CCCCC2)nc1O
The “% Inhibition @ 10 uM” value of the first is higher: -2.85% for the first, -3.12% for the second.

Going from `Cc1cccc(S(=O)(=O)Nc2cccc(-c3cn4ccc(C)cc4n3)c2)c1` to `Cc1ccc(CN(CC(=O)N2CCc3ccccc3C2)S(=O)(=O)c2ccc(C)cc2)cc1`, the “% Inhibition @ 10 uM” value falls from 4.81% to -3.18%.

First: CCOCCCNC(=O)Cn1ncc2c1-c1ccccc1OC2
Second: CCOCCCNc1nc2c(S(=O)(=O)c3ccc(Cl)cc3)nnn2c2ccccc12
The “% Inhibition @ 10 uM” value of the first is lower: -2.42% for the first, 0.291% for the second.

Going from `Cc1ccc2[nH]c(-c3ccccc3N)nc2c1` to `Cc1ccc(/C=C/c2nc3ccccc3s2)s1`, the “% Inhibition @ 10 uM” value falls from 0.162% to -0.0938%.

Compared with `Nc1ccc(C(=O)N2N=C(C(F)(F)F)CC2(O)c2ccc(F)cc2)cc1` (stereo not drawn), `Cc1ccc(NC(=O)CSCc2ccc(F)cc2)cc1` is higher in “% Inhibition @ 10 uM” value: -1.44% for the first, 0.722% for the second.

Going from `Cc1cc(C)c2c3c(sc2n1)C(=O)N(Cc1ccccc1)C(C)N3` (stereo not drawn) to `Cc1cc(C)c2c(CC(=O)NCCc3ccccc3)coc2c1`, the “% Inhibition @ 10 uM” value rises from -2.57% to -2.28%.

First: CCCCNc1ncc2c(n1)CC(c1ccc(C(C)(C)C)cc1)CC2=O (stereo not drawn)
Second: CC(C)(C)c1ccc(OCC(=O)N(Cc2ccccc2)C2CCS(=O)(=O)C2)cc1 (stereo not drawn)
The “% Inhibition @ 10 uM” value of the first is lower: 1.74% for the first, 2.24% for the second.

Going from `CCc1ccc(OCC(=O)Nc2ccc(CN3CCCCC3)cc2)cc1` to `CCOc1ccc(NC(=O)COc2cc(C)ccc2C)cc1`, the “% Inhibition @ 10 uM” value rises from -4.72% to -4.62%.

First: CSc1ccc(CN2CCC(N3CCCCC3)CC2)cc1
Second: CC(CCc1ccccc1)N1CCC(N2CCCCC2)CC1 (stereo not drawn)
The “% Inhibition @ 10 uM” value of the first is higher: 3.48% for the first, -3.8% for the second.

Compared with `CC1c2[nH]c3ccccc3c2CCN1S(C)(=O)=O` (stereo not drawn), `CC1Cn2c(nc(=O)c3c2NCN(CCc2ccccc2)C3)S1` (stereo not drawn) is lower in “% Inhibition @ 10 uM” value: -2.14% for the first, -3.34% for the second.

First: C=C(C#N)NC(=O)[C@H](CC(C)C)NC(=O)c1cccc(Oc2ccccc2)c1
Second: Cc1ccccc1NC(=O)CC(NC(=O)C(F)(F)F)c1ccccc1 (stereo not drawn)
The “% Inhibition @ 10 uM” value of the first is lower: -5.21% for the first, 1.9% for the second.

Compared with `Cc1ccc(NC(=O)c2cccnc2)c(NC(=O)c2cccnc2)c1`, `O=C(O)c1ccc(CNC(=O)c2ccc(NC(=O)c3ccco3)cc2)cc1` is lower in “% Inhibition @ 10 uM” value: 2.03% for the first, -3.92% for the second.

First: CCc1ccc(-c2cc3c(=O)n(CC(=O)NCCCN4CC(C)CC(C)C4)nc(C)n3n2)cc1 (stereo not drawn)
Second: Cc1ccc(CNC(=O)C(C)n2c3ccccc3c3cnnc(O)c32)cc1 (stereo not drawn)
The “% Inhibition @ 10 uM” value of the first is higher: 0.623% for the first, -5.63% for the second.

Going from `COC(=O)C1=CN(C(C)c2ccccc2)C=C(C(=O)OC)C1c1ccc(C(=O)OC)cc1` (stereo not drawn) to `COc1ccc(C(=O)N2CCn3cccc3C2c2ccccc2)cc1OC` (stereo not drawn), the “% Inhibition @ 10 uM” value falls from 2.38% to 0.776%.

First: COc1ccc(Oc2nc3c(C)cccn3c(=O)c2/C=C(\C#N)C(=O)NC2CCS(=O)(=O)C2)cc1 (stereo not drawn)
Second: Cc1ccc(Oc2nc3c(C)cccn3c(=O)c2/C=C(\C#N)S(=O)(=O)c2ccc(Cl)cc2)cc1
The “% Inhibition @ 10 uM” value of the first is higher: 2% for the first, -3.23% for the second.

First: CCOc1ccc(/C=C/[N+](=O)[O-])cc1
Second: CCCOc1cccc(NC(=O)OC2CCN(C)CC2)c1
The “% Inhibition @ 10 uM” value of the first is higher: -6.22% for the first, -15.4% for the second.

Compared with `N=C1/C(=C/c2ccc(O)cc2)C(=O)N=C2SN=C(S(=O)(=O)Cc3ccccc3)N12`, `Oc1ccc(/C=N/CC2COc3ccccc3O2)cc1` (stereo not drawn) is lower in “% Inhibition @ 10 uM” value: 5.06% for the first, 0.685% for the second.

First: CN(C(=O)Cn1cc(S(=O)(=O)Cc2ccccc2)c2ccccc21)C1CCCCC1
Second: CN(Cc1ccccc1)C(=O)C1c2ccccc2C(=O)N(C)C1c1cccs1 (stereo not drawn)
The “% Inhibition @ 10 uM” value of the first is higher: -4.05% for the first, -9.05% for the second.

First: O=C(O)CCCCCN1C(=O)C(O)=C(C(=O)c2ccc(F)cc2)C1c1ccc2c(c1)OCO2 (stereo not drawn)
Second: O=C(NCc1ccc2c(c1)OCO2)c1ccc2c3c(cccc13)CC2
The “% Inhibition @ 10 uM” value of the first is lower: -7.58% for the first, -5.3% for the second.

Compared with `CCCc1[nH]nc2c1/C(=N\OCC)CC(C)(C)C2`, `CCOc1cc2c(cc1OCC)C(c1ccc(F)c(OC)c1)NCC2` (stereo not drawn) is higher in “% Inhibition @ 10 uM” value: -2.55% for the first, 0.231% for the second.

First: COCc1[nH]nc2c1C(c1cc(OC)c(O)c(OC)c1)C(C#N)=C(N)O2 (stereo not drawn)
Second: COc1cc(C2C3=C(O)CCCC3=NC3=C2C(=O)CCC3)cc(Cl)c1OCC(=O)O (stereo not drawn)
The “% Inhibition @ 10 uM” value of the first is lower: -2.77% for the first, 2.45% for the second.

Going from `COC(=O)c1c(NC(=O)C(C)C)sc2c1CCCC2` to `c1nc(N2CCOCC2)c2c3c(sc2n1)CCCC3`, the “% Inhibition @ 10 uM” value rises from -1.2% to 23.9%.

First: Cc1cn([C@H]2C[C@H]3OC[C@H]3O2)c(=O)[nH]c1=O
Second: CC(C)n1c(N2CCN(C)CC2)nc2c1c(=O)[nH]c(=O)n2C
The “% Inhibition @ 10 uM” value of the first is lower: -4.4% for the first, 5.51% for the second.

Going from `CCCS(=O)(=O)NCc1cn2cccc(C)c2n1` to `Cc1cccc(C)c1NC(=O)c1cnoc1C`, the “% Inhibition @ 10 uM” value rises from -5.37% to 6.61%.

First: CC12CC3CC(Br)(C1)CC(C(=O)O)(C3)C2 (stereo not drawn)
Second: CC1CCC2C(C1)Nc1c(C(=O)O)cccc1C2(C)C (stereo not drawn)
The “% Inhibition @ 10 uM” value of the first is higher: 1.27% for the first, -2.97% for the second.

Compared with `COc1ccc(S(=O)(=O)N(C)CC(=O)Nc2cccc(SC)c2)cc1OC`, `COc1ccc(C2=NS(=O)(=O)N(C)C(C(=O)NCc3ccc4c(c3)OCO4)=C2)cc1OC` is higher in “% Inhibition @ 10 uM” value: -2.78% for the first, -1.06% for the second.

Compared with `CNc1ncnc2c1C(c1ccc(Br)cc1)c1c(NC)ncnc1O2`, `COC(=O)c1ccc(C2c3c(oc4ccc(F)cc4c3=O)C(=O)N2c2nc(C)c(C(C)=O)s2)cc1` (stereo not drawn) is lower in “% Inhibition @ 10 uM” value: 0.484% for the first, -1.33% for the second.

Compared with `CC1CN(C)C(C)CC1OC(=O)C(c1ccccc1)c1ccccc1` (stereo not drawn), `O=C(Cc1ccccc1)Nc1nn2c(COc3ccccc3)nnc2s1` is higher in “% Inhibition @ 10 uM” value: -4.18% for the first, 2.53% for the second.

Going from `CCCCCCc1ccc(C2(C)CC(C)(C)N(C(C)=O)c3ccccc32)cc1` (stereo not drawn) to `CC1(C)CC(O)=C/C(=N/c2ccc(Oc3ccccc3)cc2)C1`, the “% Inhibition @ 10 uM” value falls from 4.26% to 3.19%.

Going from `Cc1cccc(C)c1NC(=O)c1cc([N+](=O)[O-])ccc1C(=O)O` to `Cc1nn(-c2ccccc2)c2cc(Cl)c([N+](=O)[O-])cc12`, the “% Inhibition @ 10 uM” value rises from 2.23% to 3.15%.

Compared with `CCc1ccc(C2c3c(oc4ccccc4c3=O)C(=O)N2c2nc(C)c(C)s2)cc1` (stereo not drawn), `COc1ccc(-c2onc(C)c2C)cc1S(=O)(=O)NCc1ccc(OC(C)C)cc1` is higher in “% Inhibition @ 10 uM” value: -1.86% for the first, 1.73% for the second.

Compared with `COc1ccc(C2C(=O)c3ccccc3C2=O)c(OC)c1`, `COc1cccc(C2Nc3ccccc3N=C3CC(c4cccs4)CC(O)=C32)c1OC` (stereo not drawn) is higher in “% Inhibition @ 10 uM” value: -3.58% for the first, 2.32% for the second.

Compared with `C=CCOc1ccc(Cl)cc1CNCCCO`, `COc1cc(CNCCO)ccc1OCc1ccccc1Cl` is lower in “% Inhibition @ 10 uM” value: 0.188% for the first, -6.92% for the second.

Compared with `CCCCOc1ccc(N2C(=O)CC(N3CCN(c4ncccn4)CC3)C2=O)cc1` (stereo not drawn), `O=C1CC(N2CCCCC2)C(=O)N1c1ccc(Cl)c(C(F)(F)F)c1` (stereo not drawn) is higher in “% Inhibition @ 10 uM” value: -1.98% for the first, 6.05% for the second.

Compared with `CCC(=O)NS(=O)(=O)c1cccnc1Nc1ccc(Cl)cc1`, `O=S1(=O)N=C(Nc2cccc3ccccc23)c2ccccc21` is higher in “% Inhibition @ 10 uM” value: 1.94% for the first, 2.6% for the second.

First: COCC(C)NC(=O)c1cc(-c2ccccc2F)no1 (stereo not drawn)
Second: CCN1CCN(C(=O)c2c(-c3ccccc3Cl)noc2C)CC1
The “% Inhibition @ 10 uM” value of the first is lower: -5.11% for the first, -0.622% for the second.

First: O=C1C(c2ccccc2F)N(C2CCCCC2)C(=O)CN1C1CCCCCC1 (stereo not drawn)
Second: CN1CCc2nc(SCc3ccccc3C(F)(F)F)c(C#N)cc2C1
The “% Inhibition @ 10 uM” value of the first is lower: 2.79% for the first, 5.54% for the second.

Going from `CC(C(=O)O)n1c2ccccc2c2cnnc(O)c21` (stereo not drawn) to `CC(=O)c1c(C)oc2c1cc(O)c1ccccc12`, the “% Inhibition @ 10 uM” value rises from -0.0309% to 9.02%.

Compared with `C=CCn1c(S)nnc1-c1ccc(Cl)cc1Cl`, `CCOC(=O)N1CCN(C(=O)c2cc3c(s2)-c2ccc(Cl)cc2S(=O)(=O)C3)CC1` is lower in “% Inhibition @ 10 uM” value: 1.27% for the first, 0.953% for the second.

Compared with `Cc1nn(C)cc1CN(C)S(=O)(=O)c1c(C)c(C)c(C)c(C)c1C`, `CCc1nc2c(sc3nc(C)cc(COC)c32)c(=O)n1CCN(CC)CC` is higher in “% Inhibition @ 10 uM” value: 2.4% for the first, 7.16% for the second.

Compared with `CCN(CC)CCN(CC)Cc1c(F)cccc1F`, `CCOc1ccc(CNCc2c(C(=O)O)c(C)n(Cc3ccc(F)cc3)c2C)cc1OC` is higher in “% Inhibition @ 10 uM” value: -0.0648% for the first, 2.99% for the second.

First: O=C(O)C1C2C=CC(O2)C1C(=O)Nc1ccc(Cl)c(Cl)c1 (stereo not drawn)
Second: Cc1c(CCC(=O)O)c(=O)oc2c(C)c3occ(C(C)(C)C)c3cc12
The “% Inhibition @ 10 uM” value of the first is lower: -5.46% for the first, 0.558% for the second.

`Cc1ccc(S(=O)(=O)N(C)CC(=O)N2CCCCCC2)cc1` was tested, and the “% Inhibition @ 10 uM” value was 0.746% and 3.56%.
